From PubChem BioAssay AID330 (DTP/NCI, 2004)
Toxic doses and inconclusive results are not listed. Certain results were filed several times, with different values. This is not the full list of results. There may be further records. Values given together differ for a reason that is not stated; they may come from other doses, times, organisms or constructs than stated.

Tested on: P388 leukemia ip, CD2F1 mice, survival T/C
Test: NCI In Vivo Anticancer Drug Screen. Data for tumor model P388 Leukemia (intraperitoneal) in CD2F1 (CDF1) mice
Conditions: endpoint: median survival time, higher = longer survival

COc1cccc2c1C(=O)c1c(O)c3c(c(O)c1C2=O)CC(O)(C(=O)CO)CC3OC1CC(N)C(O)C(C)O1 (stereo not given)
T/C (dose: 11.7 mg/kg/injection, schedule: Q01DX009 (ip), vehicle: saline): 110 % of control and 165 % of control | T/C (dose: 46.8 mg/kg/injection, schedule: Q01DX009 (ip), vehicle: saline): 98 % of control and 153 % of control

COc1cccc2c1C(=O)c1c(O)c3c(c(O)c1C2=O)C[C@@](O)(C(C)O)C[C@@H]3OC1CC(N2CCOCC2)C(O)C(C)O1 (stereo not given in full)
T/C (dose: 200.0 micrograms/kg/injection, schedule: Q04DX003 (ip), vehicle: water): 110 % of control and 153 % of control | T/C (dose: 400.0 micrograms/kg/injection, schedule: Q04DX003 (ip), vehicle: water): 115 % of control and 153 % of control

COc1ccc(C(=O)N/N=C(\C)[C@]2(O)Cc3c(O)c4c(c(O)c3[C@@H](OC3CC(N)C(O)C(C)O3)C2)C(=O)c2c(OC)cccc2C4=O)cc1 (stereo not given in full)
T/C (dose: 8.0 mg/kg/injection, schedule: Q01DX009 (ip), vehicle: water): 120 % of control and 183 % of control
